# The list shows a part of the results. The main result of the screen is listed elsewhere. These columns were measured beside it and carry no call.
# Columns and labels:
# Test in all cases: Primary Screen for Target Class Profiling of Small Molecule Inhibitors of Methyltransferases
# [1] = target: Glycine N-methyltransferase (Homo sapiens) (UniProt Q14749); settings: purified enzyme, MTase-Glo SAH luminescence; measured here: GNMT inhibition; at 40 µM; stronger effect = lower value
# In short: (§1)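 Each enzyme was reacted with SAM and its substrate, with compounds tested once at 40 uM; SAH formed was read by MTase-Glo luminescence.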
# [2] = target: Guanidinoacetate N-methyltransferase (Homo sapiens) (UniProt Q14353); settings: purified enzyme, MTase-Glo SAH luminescence; measured here: GAMT inhibition; at 40 µM; stronger effect = lower value
# In short: as §1
# [3] = target: Histamine N-methyltransferase (Homo sapiens) (UniProt P50135); settings: purified enzyme, MTase-Glo SAH luminescence; measured here: HNMT inhibition; at 40 µM; stronger effect = lower value
# In short: as §1
# [4] = target: Nicotinamide N-methyltransferase (Homo sapiens) (UniProt P40261); settings: purified enzyme, MTase-Glo SAH luminescence; measured here: NNMT inhibition; at 40 µM; stronger effect = lower value
# In short: as §1
# [5] = target: Phenylethanolamine N-methyltransferase (Homo sapiens) (UniProt P11086); settings: purified enzyme, MTase-Glo SAH luminescence; measured here: PNMT inhibition; at 40 µM; stronger effect = lower value
# In short: as §1
# % is scaled to controls: 0 for no effect and ±100 for the full control effect.
SMILES,"activity change, negative = inhibition [1]","activity change, negative = inhibition [2]","activity change, negative = inhibition [3]","activity change, negative = inhibition [4]","activity change, negative = inhibition [5]"
Cc1ccc(CN2CCC(CNc3cc(C4CC(O)C4)ncn3)CC2)o1 (configuration not stated),-1.15%,0.101%,-17.3%,-4.05%,-2.81%
COCC1CN(C2CCC2)CC12CCN(Cc1scnc1C)CC2 (configuration not stated),-9.49%,-12.7%,-9.16%,-18.2%,-8.36%
Cc1cn([C@H]2CC(N=[N+]=[N-])[C@@H](CO)O2)c(=O)[nH]c1=O (some centres not stated),4.47%,11.7%,12.4%,-5.52%,2.37%
Cc1cc(C)cc(NC(=O)c2cc3n(n2)CC(C)(C(=O)NC2CCCCCC2)N(C)C3=O)c1 (configuration not stated),6.61%,0.692%,7.63%,-1.04%,3.73%
Cc1cc(C(=O)N2CCC3(CC2)CC(N(Cc2ccc(F)cc2)C2CC2)CCO3)n(C)n1 (configuration not stated),-1.14%,-1.56%,0.848%,-10.6%,-0.537%
Cc1ccc(-c2cc(C(=O)NCc3cccs3)nn3cnnc23)cc1,-6.1%,-3.76%,-3.96%,-12.3%,-11%
Cc1ccc(NC(=O)N2CCC(c3nc(CCOCC4CC4)no3)C2)cc1C (configuration not stated),-3.4%,0.726%,0.408%,-2.91%,1.14%
O=S(=O)(NCCn1c(CCc2ccccc2)nc2ccccc21)c1ccccc1,-1.91%,3.96%,-2.92%,-6.21%,2.19%
CCOC(=O)c1cc2n(n1)CC(C)(C(=O)NCc1ccccc1)N(c1cccc(SC)c1)C2=O (configuration not stated),-1.86%,1.47%,-5.84%,-8.19%,-4.76%
COC(=O)c1ccc(NC(=O)N2Cc3c(sc4c3CCCC4)-n3cccc3C2c2cc(F)cc(F)c2)cc1 (configuration not stated),0.802%,0.749%,-2.75%,-5.22%,5.33%
Cc1cccc(-c2cn[nH]c2C2CCN(C(=O)c3cc(=O)[nH]c(=O)[nH]3)CC2)c1,-8.15%,-8.41%,-2.17%,-13.3%,-8.22%
COc1cc(O)cc(/C=C/c2cccc(O)c2)c1,-7.6%,-7.24%,0.913%,-27.7%,-1.7%
O=C(NC1CC(=O)N(CCCc2ccccc2)C1)c1ccoc1 (configuration not stated),-6.24%,-12.7%,-6.91%,-14.6%,-10.6%
COc1ccc(C(=O)NCCn2c(C)cnc2-c2ccccc2)cn1,-4%,-8.06%,-5.78%,-1.78%,-8.65%
CNC(=O)[C@@H]1C[C@H](Oc2ccccc2)CN1S(=O)(=O)c1ccc2c(c1)CCC2,-2%,-1.65%,1.17%,-0.642%,0.646%
COc1ccc(N2C(=O)CSc3c(c4ccccc4n3C)C2C(=O)NCCCOC(C)C)cc1 (configuration not stated),-1.2%,-5.64%,2.23%,-3.53%,-0.921%
COCCOc1ccc(N2CCN(CCn3ncc4c3nc(N)n3nc(-c5ccco5)nc43)CC2)cc1,-1.68%,-9.09%,-1.95%,-18.8%,-6.23%
Cc1c(Cl)cccc1NC(=O)c1ncn2c1C(=O)N(C1CC1)C(C)(C(=O)NCCCOC(C)C)C2 (configuration not stated),-2.4%,0%,10.5%,4.63%,2.11%
CCN1C(=O)c2cc(C(=O)Nc3ccc(C(C)C)cc3)nn2CC1(C)C(=O)NC1CCCC1 (configuration not stated),-4.21%,-0.103%,-10.9%,-2.03%,-3.04%
COc1ccc(NS(=O)(=O)c2cc3c(cc2C)n(C)c(=O)n3C)cc1OC,3.4%,0%,7.75%,-0.513%,3.73%

SMILES,"activity change, negative = inhibition [1]","activity change, negative = inhibition [2]","activity change, negative = inhibition [3]","activity change, negative = inhibition [4]","activity change, negative = inhibition [5]"
C[S+](=O)([O-])NCc1nnc2n1C(C(=O)NCc1ccc(Cl)cc1)CC2 (configuration not stated),-7.72%,-7.34%,-10.3%,-16.7%,-5.15%
Cc1cc(OCc2nnc(SC3CCCC3)n2-c2cccnc2)ccc1-c1ccc(S(C)(=O)=O)cc1,-0.523%,-10.5%,0.554%,-34.6%,-9.6%
CN(CCCN1C(=O)c2cc3occc3n2CC1(C)C(=O)NC1CCCCC1)C1CCCCC1 (configuration not stated),1.55%,0%,-2.95%,11%,0.721%
CNC(=O)c1ccc(C)c(-n2c(C)cc(OCc3ccc(F)cc3F)c(Br)c2=O)c1,-6.03%,-5.3%,3.06%,-19.7%,-11.3%
COc1ccccc1NC(=O)Cn1c(=O)oc2cc(S(=O)(=O)N3CC(C)CC(C)C3)ccc21 (configuration not stated),6.32%,0.419%,1.4%,0.863%,-0.6%
Cc1ccc(S(=O)(=O)Cc2noc([C@@H]3C[C@@H](O)CN3Cc3cccc(C#N)c3)n2)cc1,-1.95%,-0.403%,1.62%,-4.73%,1.96%
CC(C)N1CCC(N2C[C@@H](CO)[C@H](c3nc(C4CC4)no3)C2)CC1,-1.42%,-3.66%,-16.8%,-2.13%,-0.814%
CC(C)S(=O)(=O)c1ccc2nccc(Nc3ccc4scnc4c3)c2c1,-3.06%,1.38%,-6.36%,-21.3%,-7.48%
OC[C@@H]1CNC[C@H]1C1CCN(Cc2ccsc2)CC1,-5.33%,-12.7%,-10.7%,-11.1%,-5.77%
CCCN(CCc1ccccc1)C1CCc2c(O)cccc2C1 (configuration not stated),5.15%,10.1%,-0.364%,-3.4%,9.09%
Cc1ccsc1CN1CCc2nc(N3CCOCC3)[nH]c(=O)c2CC1,-5.51%,-5.17%,-2.69%,-11.5%,-4.91%
N.N.N.N.N.N.N.N.N.N.N.N.N.N.O.O.[Ru+4].[Ru+5].[Ru+5],-69.5%,-7.11%,-15.1%,-18.6%,-11.2%
Cc1ccc(Cn2c(=O)c3ccccc3n3c(SCC(=O)Nc4ccc(C)cc4)nnc23)cc1,6.1%,0%,14%,6.35%,8.51%
Cc1noc([C@@H]2CN(Cc3cccnc3)C[C@H]2CO)n1,-1.71%,-9.42%,-2.14%,-3.2%,-0.862%
COC(=O)c1cc2n(n1)CC(C)(C(=O)NC1CCC(C)CC1)N(Cc1ccccc1C)C2=O (configuration not stated),0.418%,0%,5.21%,-0.889%,-0.577%
CCCN1C(=O)c2cc3sc(CC)cc3n2CC1(C)C(=O)NC1CCC(C)CC1 (configuration not stated),-0.664%,1.55%,2.82%,0.929%,-0.831%
COC(=O)c1c(NC(C)=O)c2cc(NC3CCCC(C)(C)C3)cnc2n1CC1CCCO1 (configuration not stated),-4%,-3.84%,-2.41%,-7.24%,-3.6%
CN(C)C(=O)CNC(=O)Cc1ccccc1,0.19%,-0.962%,12.3%,-10.7%,0.059%
CC(C)(F)CC(NC(c1ccc(-c2ccc(S(C)(=O)=O)cc2)cc1)C(F)(F)F)C(=O)NC1(C#N)CC1 (configuration not stated),0.175%,–,5.09%,–,–
CCN1C(=O)C2(CCN(S(=O)(=O)c3c(C)nn(C)c3C)CC2)c2ccccc21,-9.99%,-11.8%,-7.04%,-21.1%,-14.1%

# From PubChem BioAssay AID1745853 (National Center for Advancing Translational Sciences (NCATS), 2022)
